The full ranking holds about 110,000 compounds; the median of “z-score” is about -0.1, and the highest 2% start at about 2. Some of the results follow.

This test concerns the target Metabotropic glutamate receptor 8 (Rattus norvegicus) (UniProt P70579). The experiment in a line: rat mGluR8 modulators via GIRK flux, primary screen, cell-based, thallium flux, HTS (AID 488969). Conditions: HEK293 rat mGluR8, GIRK (G protein-gated inwardly rectifying potassium channel) thallium flux, FluoZin2; at 10 µM; stronger effect = higher value; submaximal glutamate (EC20) added with thallium.
Sequence of UniProt P70579 (P70579 whole entry, looked up): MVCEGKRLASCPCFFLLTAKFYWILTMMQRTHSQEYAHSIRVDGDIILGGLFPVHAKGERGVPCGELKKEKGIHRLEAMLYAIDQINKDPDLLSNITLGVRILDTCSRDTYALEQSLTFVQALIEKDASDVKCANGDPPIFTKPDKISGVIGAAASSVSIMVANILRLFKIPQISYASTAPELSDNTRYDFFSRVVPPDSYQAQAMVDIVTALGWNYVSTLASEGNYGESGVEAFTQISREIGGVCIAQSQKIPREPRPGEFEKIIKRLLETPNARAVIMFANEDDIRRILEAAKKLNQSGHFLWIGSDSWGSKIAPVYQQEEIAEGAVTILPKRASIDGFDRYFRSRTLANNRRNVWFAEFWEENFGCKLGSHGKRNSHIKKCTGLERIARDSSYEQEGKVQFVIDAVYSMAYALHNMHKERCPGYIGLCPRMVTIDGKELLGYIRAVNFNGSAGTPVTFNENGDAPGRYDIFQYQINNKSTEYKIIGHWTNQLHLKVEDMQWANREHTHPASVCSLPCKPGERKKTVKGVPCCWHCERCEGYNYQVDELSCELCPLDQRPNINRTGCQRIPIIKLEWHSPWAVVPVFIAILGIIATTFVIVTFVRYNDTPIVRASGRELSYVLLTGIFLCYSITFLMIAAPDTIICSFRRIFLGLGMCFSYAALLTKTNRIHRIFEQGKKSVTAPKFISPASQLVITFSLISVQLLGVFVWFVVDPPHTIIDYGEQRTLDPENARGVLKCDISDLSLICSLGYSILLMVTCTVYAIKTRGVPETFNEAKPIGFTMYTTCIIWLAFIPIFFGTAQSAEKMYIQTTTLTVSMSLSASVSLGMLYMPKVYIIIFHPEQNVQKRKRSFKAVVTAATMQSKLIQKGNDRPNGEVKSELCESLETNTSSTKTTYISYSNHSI
In the case of `Clc1cccc(Cl)c1Cn1cc(Br)cn1`, the z-score amounted to 0.143.
`CCNc1nc(N)c(C(=O)c2ccc(Cl)s2)s1` returned a z-score of 1.03.
Consider `CC1=C(C(N)=O)C(c2cccs2)n2nc(-c3cccc(Cl)c3)nc2N1` (stereo not given), for which the z-score worked out at 2.14.
`CCC(=O)NC(=S)Nc1ccc(NC(=O)c2ccc([N+](=O)[O-])cc2)cc1`: the z-score turned out to be 0.824.
For `NC(=O)C[C@@H]1N[C@]2(C(=O)Nc3ccccc32)[C@@H]2C(=O)N(C3CCCCC3)C(=O)[C@H]12`, the z-score was -0.23.
For `CCOc1ccc(Nc2oc(Cc3ccccc3)nc2C#N)cc1`, the z-score was -1.36.
With `CCOC(=O)N/N=C/c1cn(CCCOc2ccc(C)cc2)c2ccccc12`, the z-score came to 0.276.
`CCCCc1ccc(NC(=O)c2c(C)noc2C)cc1`: the z-score is -0.0917.
In turn, `c1coc(C2Nc3cccc4cccc(c34)N2)c1` registered a z-score of 0.186.
As for `COc1cc(C(=O)N2CCN(C/C=C/c3ccccc3)CC2)cc(OC)c1C`, the z-score is -0.426.
As for `CCC(C)NC(=O)c1ccccc1NC(=O)CN(c1ccc(OC)cc1)S(C)(=O)=O` (stereo not given), the z-score is -0.236.
Then `O=C1c2ccccc2C(Nc2ccc(S(=O)(=O)N3CCOCC3)cc2)N1c1ccccn1` (stereo not given), with -0.244; and `Cc1ccc(Cl)c(OCC(=O)NCc2ccco2)c1`, with -0.0225.
As to `CCCC(=O)Nc1cc(-c2nnc(OC)c3ccccc23)ccc1N1CCCCC1`, the z-score was -0.148.
Consider `O=C(CN1C(=O)c2ccccc2C1=O)c1ccccc1`, for which the z-score turned out to be 0.035.
For `Cc1cccc(SCc2noc(C(=O)NCC3CCCO3)c2C(=O)O)c1` (stereo not given), the z-score was -1.59.
`CSc1nc2sc(-c3ccccc3)cc2c(=O)n1N` returned a z-score of 0.734.
As for `C=CCNC(=O)CC(=O)N/N=C/c1cccc(C)c1`, the z-score was -0.0638.
The molecule `COc1ccc(C)cc1S(=O)(=O)Nc1cccc(SC)c1` had a z-score of 0.29.
Turning to `COc1ccccc1CN(C)CC(=O)Nc1ccc(Cl)cc1C(F)(F)F`, the z-score is -0.124.
For `Cc1cc(C(=O)N2CCN(c3ccc([N+](=O)[O-])cc3)CC2)no1`, the z-score is 0.0375.
`CCOC(=O)c1c(C)oc2c(CC(=O)c3ccccc3)c(Cl)c(O)c(O)c12`: the z-score was -0.106.
With `Cc1cnc(NC(=O)c2ccc3c(c2)C(=O)N(Cc2ccco2)C3=O)s1`, the z-score is -0.373.
On to `CCc1nn(-c2cc(Cl)ccc2OC)c2c1C(=O)CCC2`, for which the z-score is -0.275.
Turning to `CC(C)(C)OC(=O)NCCc1nnc(SCc2ccc(Cl)cc2Cl)o1`, the z-score was -0.311.
For the molecule `CCN(c1ccccc1)S(=O)(=O)c1cc(NC(=O)Nc2ccccc2C#N)ccc1Cl`, the z-score was -0.533.
Turning to `Cc1cc(NC(=O)CCCSc2nc(-c3ccco3)cc(C(F)(F)F)n2)n(-c2ccccc2)n1`, the z-score was -0.49.
In the case of `CSCCC(NC(=O)C12CC3CC(CC(C3)C1)C2)C(=O)OCC(=O)c1ccc(Cl)cc1` (stereo not given), the z-score is -0.227.
As to `O=C(CCC1COc2ccccc2O1)Nc1cccnc1` (stereo not given), the z-score is -0.0766.
The value for `O=C(/C=C/NNC(=O)c1cccc(Br)c1)c1ccccc1` was 0.542.

For the origin of these results see PubChem BioAssay AID488969 (Vanderbilt High Throughput Screening Facility, 2010).
